AlphaScreen luminescence signal data for three molecules are collected here from the supplement of paper PMC12423691.

B1: RELB, Q01201 (protein)
chain: MLRSGPASGPSVPTGRAMPSRRVARPPAAPELGALGSPDLSSLSLAVSRSTDELEIIDEYIKENGFGLDGGQPGPGEGLPRLVSRGAASLSTVTLGPVAPPATPPPWGCPLGRLVSPAPGPGPQPHLVITEQPKQRGMRFRYECEGRSAGSILGESSTEASKTLPAIELRDCGGLREVEVTACLVWKDWPHRVHPHSLVGKDCTDGICRVRLRPHVSPRHSFNNLGIQCVRKKEIEAAIERKIQLGIDPYNAGSLKNHQEVDMNVVRICFQASYRDQQGQMRRMDPVLSEPVYDKKSTNTSELRICRINKESGPCTGGEELYLLCDKVQKEDISVVFSRASWEGRADFSQADVHRQIAIVFKTPPYEDLEIVEPVTVNVFLQRLTDGVCSEPLPFTYLPRDHDSYGVDKKRKRGMPDVLGELNSSDPHGIESKRRKKKPAILDHFLPNHGSGPFLPPSALLPDPDFFSGTVSLPGLEPPGGPDLLDDGFAYDPTAPTLFTMLDLLPPAPPHASAVVCSGGAGAVVGETPGPEPLTLDSYQAPGPGDGGTASLVGSNMFPNHYREAAFGGGLLSPGPEAT
B2: TFEB, P19484 (protein)
chain: MASRIGLRMQLMREQAQQEEQRERMQQQAVMHYMQQQQQQQQQQLGGPPTPAINTPVHFQSPPPVPGEVLKVQSYLENPTSYHLQQSQHQKVREYLSETYGNKFAAHISPAQGSPKPPPAASPGVRAGHVLSSSAGNSAPNSPMAMLHIGSNPERELDDVIDNIMRLDDVLGYINPEMQMPNTLPLSSSHLNVYSSDPQVTASLVGVTSSSCPADLTQKRELTDAESRALAKERQKKDNHNLIERRRRFNINDRIKELGMLIPKANDLDVRWNKGTILKASVDYIRRMQKDLQKSRELENHSRRLEMTNKQLWLRIQELEMQARVHGLPTTSPSGMNMAELAQQVVKQELPSEEGPGEALMLGAEVPDPEPLPALPPQAPLPLPTQPPSPFHHLDFSHSLSFGGREDEGPPGYPEPLAPGHGSPFPSLSKKDLDLMLLDDSLLPLASDPLLSTMSPEASKASSRRSSFSMEEGDVL
B3: CMKLR1, Q99788 (protein)
chain: MRMEDEDYNTSISYGDEYPDYLDSIVVLEDLSPLEARVTRIFLVVVYSIVCFLGILGNGLVIIIATFKMKKTVNMVWFLNLAVADFLFNVFLPIHITYAAMDYHWVFGTAMCKISNFLLIHNMFTSVFLLTIISSDRCISVLLPVWSQNHRSVRLAYMACMVIWVLAFFLSSPSLVFRDTANLHGKISCFNNFSLSTPGSSSWPTHSQMDPVGYSRHMVVTVTRFLCGFLVPVLIITACYLTIVCKLQRNRLAKTKKPFKIIVTIIITFFLCWCPYHTLNLLELHHTAMPGSVFSLGLPLATALAIANSCMNPILYVFMGQDFKKFKVALFSRLVNALSEDTGHSSYPSHRSFTKMSSMNERTSMNERETGML

The list shows a part of the results. Binding of human transcription factors and regulators to the viral nucleoprotein by AlphaScreen, crude cell-free proteins, amounts not normalised, one pass. Fold of the Venus control; higher = more signal. No active / inactive call. Single-pass screen; sequences are the whole Swiss-Prot entries looked up by name.

This assay has as its target nucleoprotein N of Crimean-Congo hemorrhagic fever virus. Description: AlphaScreen luminescence signal relative to Venus negative control (fold); higher = stronger binding to CCHFV N. The protocol:
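AlphaScreen binding of cell-free made, FLAG-GST-tagged human transcription factors and regulators (crude translation products) to biotinylated N protein; signal as fold of the FLAG-GST-Venus control. One pass.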
As to B1, the AlphaScreen luminescence signal is 1.72.

With B2, the AlphaScreen luminescence signal stood at 2.7.

Turning to B3, the AlphaScreen luminescence signal is 3.86.
